Whole data set: some 33,000 sequences, median “E-score (-0.5 to 0.5)” near -0.036, cut for the highest 2% near 0.37. The list shows a part of the results.
target: T1, Yer064c (UniProt P40041); assay: PBM E-score (8-mer binding enrichment) (E-score (-0.5 to 0.5)); higher = stronger / more preferred TF binding; most listed sequences are background and not binding sites; details: protein concentration: 200 nM; construct: GST-full length
T1 sequence: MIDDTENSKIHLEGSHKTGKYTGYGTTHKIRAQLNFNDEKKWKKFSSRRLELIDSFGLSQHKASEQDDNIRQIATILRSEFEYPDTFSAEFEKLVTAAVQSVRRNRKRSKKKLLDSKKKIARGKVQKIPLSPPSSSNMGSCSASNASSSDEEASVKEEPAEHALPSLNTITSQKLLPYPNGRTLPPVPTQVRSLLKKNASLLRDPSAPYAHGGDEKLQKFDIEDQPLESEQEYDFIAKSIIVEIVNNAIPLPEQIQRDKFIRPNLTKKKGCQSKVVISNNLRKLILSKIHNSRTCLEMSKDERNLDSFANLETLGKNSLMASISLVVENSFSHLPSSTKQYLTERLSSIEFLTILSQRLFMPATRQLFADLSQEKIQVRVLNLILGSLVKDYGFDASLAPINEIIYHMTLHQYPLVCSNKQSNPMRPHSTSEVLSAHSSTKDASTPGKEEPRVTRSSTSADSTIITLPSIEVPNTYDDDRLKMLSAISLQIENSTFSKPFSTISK
Outline: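 PURExpress in vitro transcription/translation supplied GST-tagged yeast transcription factors, either full-length or DNA-binding domain. Applied at about 100-200 nM to universal all-10-mer Agilent arrays double-stranded by primer extension, the bound protein was detected with fluorescent anti-GST. E-scores, modified Wilcoxon-Mann-Whitney statistics, were given by the Universal PBM Analysis Suite to ungapped eight-base words pooled with their reverse complements after masliner normalisation.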

| Sequence | PBM E-score |
| --- | --- |
| CTCACAAC | 0.143 |
| AACCGGAC | -0.148 |
| CGCGAGAG | -0.16 |
| ACGGAAAA | -0.047 |
| ATGGTCAC | 0.0768 |
| ATCCCAGA | -0.207 |
| TCTATGAA | 0.0776 |
| CCAAAACA | -0.0588 |
| CCACAGAG | -0.00502 |
| GGCTGCAA | -0.0494 |
| ACCTGCCA | -0.26 |
| TGCTTCAA | -0.0458 |
| ACATTCCA | -0.0571 |
| CAATTTCG | -0.209 |
| ACTAATCA | 0.403 |
| AATGGAAG | -0.0716 |
| CTGCCGAA | -0.0478 |
| ACGACATC | -0.208 |
| CACTACCC | 0.00286 |
| ACTGGCGA | 0.0456 |
| CCTGGAAG | -0.1 |
| ACACCGAG | 0.0581 |
| CAGGATCG | -0.0528 |
| ACTAGCGC | 0.103 |
| CCCGGAAA | -0.0462 |

| Sequence | PBM E-score |
| --- | --- |
| AAAGAGAG | -0.148 |
| CATAAGGA | -0.0677 |
| AGTCATCC | 0.49 |
| GCGCGTAC | -0.116 |
| CAGCCCGG | -0.255 |
| AGGCTCTA | -0.236 |
| CCCATCGG | 0.0685 |
| CTCCGACA | 0.00959 |
| ACTCTTGG | 0.186 |
| ATCGCTCC | -0.163 |
| TCAAGAGA | -0.0143 |
| TCATATCA | 0.209 |
| CCATCCAC | -0.194 |
| CCGCAACG | -0.112 |
| ATTATCAA | 0.14 |
| AACTGATC | 0.12 |
| ATAGGGTG | -0.106 |
| GTTGGATA | 0.0253 |
| ACTATGAC | 0.372 |
| ATTTGTCG | -0.0532 |
| ACGAACTG | -0.0432 |
| AAATTACG | -0.0646 |
| AGGGATGC | -0.32 |
| ACGTAAGT | 0.199 |
| AAGCCTTG | -0.0941 |

| Sequence | PBM E-score |
| --- | --- |
| ACCTTGAA | 0.0165 |
| CCGGAGCC | -0.343 |
| ATACGATA | 0.106 |
| GCCTGGCC | -0.291 |
| CCTATCCA | -0.147 |
| GACTATGC | 0.397 |
| TCACATCA | 0.118 |
| CCTCATGA | 0.16 |
| AGGGCTAT | -0.329 |
| ACCTAGTC | 0.33 |
| TACACGAA | 0.0233 |
| ATCCGTTG | -0.037 |
| GACCACCC | -0.22 |
| ATGGATGA | 0.106 |
| CAAGAGGG | -0.217 |
| TACGGGAA | -0.214 |
| AGGAGTTA | -0.00713 |
| CGGGAGAA | -0.141 |
| AACGTATG | -0.0964 |
| ACCACCCG | -0.0525 |
| AGATGATG | 0.149 |
| ACCCCAGT | -0.0149 |
| CAGGAAGG | -0.154 |
| CTTCCATA | 0.0346 |
| CAGGTAGA | -0.164 |

| Sequence | PBM E-score |
| --- | --- |
| GTCGTTTA | 0.153 |
| GGGGGGCA | -0.143 |
| GGCCGTTA | -0.278 |
| ACGGGCTG | -0.127 |
| AGTTAACG | 0.097 |
| GGCTAGCC | -0.234 |
| TGACCCCA | -0.0339 |
| CAGTCTAA | 0.0864 |
| TCGGTAGA | 0.1 |
| AAAATCTT | 0.157 |
| AGAGGGAG | -0.0371 |
| CTTAGACC | 0.0119 |
| ACAGTGAG | 0.123 |
| ACCGGCAC | 0.0231 |
| GCTCACTA | 0.102 |
| AATTACCT | 0.0151 |
| CTTAGCTC | -0.0993 |
| GGGCATTA | -0.171 |
| CCTTCCAC | -0.274 |
| CCTCTTCC | -0.321 |
| ACTTGTAC | 0.0162 |
| ATGGTAGC | -0.214 |
| GACGAACC | -0.0385 |
| GCCCAGTA | -0.183 |
| TACCCTCA | -0.121 |

| Sequence | PBM E-score |
| --- | --- |
| AGGGGCTC | -0.298 |
| CCAGCGCA | -0.168 |
| AAGGTACC | -0.198 |
| GTTACAAA | 0.134 |
| CGCGGTTC | -0.0489 |
| TAAGCGTA | -0.0328 |
| AGGAGGCG | -0.337 |
| GAGGCACA | -0.0696 |
| CTATATAG | -0.02 |
| AGCCTGCA | -0.0726 |
| ATTGCCGA | -0.0492 |
| AGAATGGA | -0.0129 |
| CTTCCCCA | -0.129 |
| CCAATTTA | 0.0761 |
| AACGCCTC | -0.31 |
| CCAGTAAC | -0.0881 |
| CTAAAGTA | -0.0185 |
| GGTGTACA | -0.139 |
| ACAACCTC | -0.278 |
| ACCCGTAG | -0.131 |
| CGCTTATC | -0.0597 |
| CAGGGGCG | -0.244 |
| ATCGCAAG | 0.0475 |
| CTGTGTGA | 0.114 |
| CATTGCGG | 0.00493 |

| Sequence | PBM E-score |
| --- | --- |
| AACGACCT | 0.08 |
| GCGTGTGA | 0.0238 |
| TTCATGAA | 0.24 |
| CAGCGCGA | -0.12 |
| GGAGTAAC | 0.0622 |
| AGCGATCA | -0.0759 |
| CGCTACCG | -0.267 |
| GGTCTCTA | -0.17 |
| AGCATAGC | -0.0852 |
| GGTTGGTA | -0.0591 |
| GCATCCCA | -0.162 |
| AAAGCAGG | 0.0666 |
| TGCCGGCA | -0.405 |
| CATGGGGG | -0.139 |
| GCCCCGAA | -0.23 |
| CAGCTCTA | -0.207 |
| CTATGATA | 0.00827 |
| AAGTTCCG | -0.118 |
| GTGCAGGA | -0.211 |
| AAAAATCG | -0.149 |
| AAGCTCCT | -0.0527 |
| AAACGGGA | -0.154 |
| ACTTCTTA | -0.0384 |
| TACTGAGA | 0.127 |
| CTTGTGGC | -0.085 |

| Sequence | PBM E-score |
| --- | --- |
| ATTATAAT | 0.183 |
| GTACGTTA | 0.0289 |
| ACCTCCGT | -0.0377 |
| CACTTAAC | 0.11 |
| CACGGCAC | -0.095 |
| GGGTCTTA | 0.0907 |
| ACAATCAG | 0.157 |
| ACGCCAGT | -0.091 |
| ACCAACTC | 0.0794 |
| CCAGAAAC | -0.141 |
| CTTATACC | 0.0132 |
| AGTCTAAA | 0.288 |
| CTTCCGAC | 0.0148 |
| GGGGCCCC | -0.304 |
| GTTTCGTA | 0.0435 |
| AAGTTGCA | -0.213 |
| AAGCGGCA | -0.244 |
| GAAGCAAA | -0.0233 |
| AGTACGAT | 0.123 |
| CGGGGCGA | 0.0815 |
| AACCCAAG | -0.0942 |
| CAGTAGGC | -0.0618 |
| TGTACGAA | -0.0717 |
| GTTATATA | 0.0615 |
| CCGCGCGA | -0.0349 |

| Sequence | PBM E-score |
| --- | --- |
| ATCAACTC | 0.18 |
| CTCGAGAC | 0.163 |
| CTATCGGC | -0.0556 |
| CGTTGTGC | -0.0189 |
| AAGGCGAC | -0.102 |
| ACGGCAGT | -0.135 |
| CACACTCG | 0.191 |
| CAGCTGAC | 0.195 |
| GCAGGAGC | -0.189 |
| CACGTCGC | -0.152 |
| ATCCACAA | 0.0894 |
| ATTCCTTC | -0.0273 |
| GAGATATA | 0.025 |
| AGTTGTGA | 0.195 |
| AATACGGC | -0.0116 |
| ACGAATAC | 0.081 |
| GGAAACAA | -0.154 |
| ACACCATG | -0.0612 |
| CCAAACAA | -0.00311 |
| CCTTGTAA | -0.157 |
| ATTATTGC | 0.0714 |
| CCGCCCGC | -0.148 |
| GATCAGAC | 0.0134 |
| AAGCCTCG | -0.15 |
| TAGATTAA | 0.275 |

| Sequence | PBM E-score |
| --- | --- |
| AGACTCTA | 0.267 |
| CCCGGCTC | -0.249 |
| CCTTCGAA | -0.0709 |
| CGAGCGTC | -0.155 |
| ACACTAAT | 0.0115 |
| CGGCTGTC | -0.231 |
| CCCCTGTA | -0.105 |
| AACAATCC | 0.0918 |
| CAATCAAA | 0.142 |
| CCCAACAC | -0.294 |
| CACTATGA | 0.193 |
| ACTATAAT | 0.283 |
| AGGAAATC | 0.0855 |
| CCACAAAA | -0.0612 |
| ACGTTGCG | -0.176 |
| CCTGTAAC | -0.132 |
| GCCATAGC | -0.0768 |
| AAATCATC | 0.403 |
| AAAAATGT | -0.122 |
